# Experimental data published in patent US9234216B2, “Variant CBH I polypeptides” (BP Corporation North America Inc., priority 2011, dated 2016).
# B1: SEQ ID NO: 11, 12: BD29555 CBH I variant: H497S (protein)
# chain: MSALNSFNMYKSALILGSLLATAGAQQIGTYTAETHPSLSWSTCKSGGSCTTNSGAITLDANWRWVHGVNTSTNCYTGNTWNTAICDTDASCAQDCALDGADYSGTYGITTSGNSLRLNFVTGSNVGSRTYLMADNTHYQIFDLLNQEFTFTVDVSHLPCGLNGALYFVTMDADGGVSKYPNNKAGAQYGVGYCDSQCPRDLKFIAGQANVEGWTPSSNNANTGLGNHGACCAELDIWEANSISEALTPHPCDTPGLSVCTTDACGGTYSSDRYAGTCDPDGCDFNPYRLGVTDFYGSGKTVDTTKPITVVTQFVTDDGTSTGTLSEIRRYYVQNGVVIPQPSSKISGVSGNVINSDFCDAEISTFGETASFSKHGGLAKMGAGMEAGMVLVMSLWDDYSVNMLWLDSTYPTNATGTPGAARGSCPTTSGDPKTVESQSGSSYVTFSDIRVGPFNSTFSGGSSTGGSSTTTASGTTTTKASSTSTSSTSTGTGVAASWGQCGGQGWTGPTTCASGTTCTVVNPYYSQCL
# B2: SEQ ID NO: 51, 52: BD29555 CBH I variant: E386S (protein)
# chain: B1 chain with E386S, S497H
# B3: SEQ ID NO: 35, 36: BD29555 CBH I variant: Q334S (protein)
# chain: B1 chain with Q334S, S497H
# B4: SEQ ID NO: 23, 24: BD29555 CBH I variant: N183A (protein)
# chain: B1 chain with N183A, S497H
# B5: SEQ ID NO: 53, 54: BD29555 CBH I variant: V451W (protein)
# chain: B1 chain with V451W, S497H
# B6: SEQ ID NO: 41, 42: BD29555 CBH I variant: G351D (protein)
# chain: B1 chain with G351D, S497H
# B7: SEQ ID NO: 17, 18: BD29555 CBH I variant: G256I (protein)
# chain: B1 chain with G256I, S497H
# B8: SEQ ID NO: 3, 4: BD29555 CBH I variant: N222E (protein)
# chain: B1 chain with N222E, S497H
# B9: SEQ ID NO: 15, 16: BD29555 CBH I variant: D87L (protein)
# chain: B1 chain with D87L, S497H
# B10: SEQ ID NO: 19, 20: BD29555 CBH I variant: H157G (protein)
# chain: B1 chain with H157G, S497H
# B11: SEQ ID NO: 5, 6: BD29555 CBH I variant: S217K (protein)
# chain: B1 chain with S217K, S497H
# B12: SEQ ID NO: 27, 28: BD29555 CBH I variant: S218P, T316S (protein)
# chain: B1 chain with S218P, T316S, S497H
# B13: SEQ ID NO: 13, 14: BD29555 CBH I variant: T510K (protein)
# chain: B1 chain with S497H, T510K
# B14: SEQ ID NO: 21, 22: BD29555 CBH I variant: P159G (protein)
# chain: B1 chain with P159G, S497H
# B15: SEQ ID NO: 37, 38: BD29555 CBH I variant: K345D (protein)
# chain: B1 chain with K345D, S497H
# B16: SEQ ID NO: 55, 56: BD29555 CBH I variant: N455G (protein)
# chain: B1 chain with N455G, S497H
# B17: SEQ ID NO: 31, 32: BD29555 CBH I variant: T324R (protein)
# chain: B1 chain with T324R, S497H
# B18: SEQ ID NO: 1, 2: BD29555 CBH I variant: N222H (protein)
# chain: B1 chain with N222H, S497H
# B19: SEQ ID NO: 57, 58: BD29555 CBH I variant: S463K (protein)
# chain: B1 chain with S463K, S497H
# B20: SEQ ID NO: 29, 30: BD29555 CBH I variant: D318Q, T322S, I363V (protein)
# chain: B1 chain with D318Q, T322S, I363V, S497H
# B21: SEQ ID NO: 43, 44: BD29555 CBH I variant: N352V (protein)
# chain: B1 chain with N352V, S497H
# B22: SEQ ID NO25, 26: BD29555 CBH I variant: S156G (protein)
# chain: B1 chain with S156G, S497H
# B23: SEQ ID NO: 33, 34: BD29555 CBH I variant: S326L (protein)
# chain: B1 chain with S326L, S497H
# B24: SEQ ID NO: 9, 10: BD29555 CBH I variant: L225V (protein)
# chain: B1 chain with L225V, S497H
# B25: SEQ ID NO: 45, 46: BD29555 CBH I variant: F358L (protein)
# chain: B1 chain with F358L, S497H
# B26: SEQ ID NO: 39, 40: BD29555 CBH I variant: K45R, T293A, S350C (protein)
# chain: B1 chain with K45R, T293A, S350C, S497H
# B27: SEQ ID NO: 47, 48: BD29555 CBH I variant: A370I (protein)
# chain: B1 chain with A370I, S497H
# B28: SEQ ID NO: 49, 50: BD29555 CBH I variant: G376R (protein)
# chain: B1 chain with G376R, S497H
# B29: SEQ ID NO: 7, 8: BD29555 CBH I variant: L225Y (protein)
# chain: B1 chain with L225Y, S497H
# Assay: Saccharification of pretreated bagasse by CBHI variants in a cocktail with CBHII and EG
# Type: biochemical
# Conditions: Table 2; 5% w/v pretreated bagasse, 35° C., pH5.2, CBHI 4 mg/g cellulose; (% conversion of variant − % conversion of wt)/% conversion of wt
# Experimental: CBHI variants shown in Tables 1 and 5 were assayed under the following conditions: • 5% w/v pretreated bagasse (62.07% cellulose) • 35° C., 300 rpm shaking with 2 BBs per r×n • pH5.2 • 1 mM Sodium Azide • 5 ml total volume • Enzyme Dosing Overview:
# • Time point: T=0, 48 hours • Time point (for Point Mutant Recombinants): T=0, 72 hours • % improvement over wt=(% conversion of variant−% conversion of wt)/ • % conversion of wt Results of these assays are shown in Tables 2 and 6. • CBHI variants shown in Table 3 were assayed under the following conditions: […]
row,Molecule,% improvement over WT @ 48 hr [%]
1,B1,0.0
2,B2,7.7
3,B3,7.5
4,B4,0.9
5,B5,8.7
6,B6,3.8
7,B7,2.3
8,B8,7.2
9,B9,1.0
10,B10,8.8
11,B11,13.0
12,B12,2.9
13,B13,0.0
14,B14,11.0
15,B15,6.9
16,B16,0.8
17,B17,11.1
18,B18,12.3
19,B19,1.1
20,B20,13.9
21,B21,8.7
22,B22,5.8
23,B23,13.4
24,B24,13.3
25,B25,3.9
26,B26,4.0
27,B27,4.8
28,B28,1.7
29,B29,11.4

# Same assay, conditions: Table 2; method not described
row,Molecule,Dose Reduction [X]
1,B1,0.94
2,B2,0.75
3,B3,0.75
4,B4,0.75
5,B5,0.75
6,B6,1
7,B7,0.75
8,B10,0.75
9,B12,0.75
10,B13,0.87
11,B14,0.75
12,B15,0.75
13,B16,1
14,B17,0.75
15,B20,0.75
16,B21,0.75
17,B22,0.75
18,B23,0.75
19,B24,0.75
20,B25,0.75
21,B26,1
22,B27,1
23,B28,1
24,B29,0.75

# Positions count from the first letter of the chain named. Numbers in names are those of the source.
